For 98 molecules, inhibition results are on record in PubChem BioAssay AID485344 (National Center for Advancing Translational Sciences (NCATS), 2010).

About 6,900 (2%) of roughly 340,000 compounds were called active. Rule as the data show it: active = inhibition above about 30%; inactive = below that, where a call was filed. The list shows a part of the results, in another mix than the full data. The source gives no active or inactive call for entries shown without one.

The assay concerns the target D(2) dopamine receptor (Homo sapiens) (UniProt P14416). The assay can be described thus: HTS Assay for Allosteric Antagonists of the Human D2 Dopamine Receptor: Primary Screen for Antagonists. Also: 0% is about no effect. Particulars: HEK293 TREx D2 cells, calcium flux, dopamine EC80; at 10 µM; stronger effect = higher value. Summed up: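 Antagonism is scored as inhibition of an EC80 dopamine-evoked calcium signal in a force-coupled, tetracycline-inducible HEK293 T-REx D2 line, with compound present 180 s before agonist.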
Sequence of UniProt P14416 (P14416 whole entry, looked up): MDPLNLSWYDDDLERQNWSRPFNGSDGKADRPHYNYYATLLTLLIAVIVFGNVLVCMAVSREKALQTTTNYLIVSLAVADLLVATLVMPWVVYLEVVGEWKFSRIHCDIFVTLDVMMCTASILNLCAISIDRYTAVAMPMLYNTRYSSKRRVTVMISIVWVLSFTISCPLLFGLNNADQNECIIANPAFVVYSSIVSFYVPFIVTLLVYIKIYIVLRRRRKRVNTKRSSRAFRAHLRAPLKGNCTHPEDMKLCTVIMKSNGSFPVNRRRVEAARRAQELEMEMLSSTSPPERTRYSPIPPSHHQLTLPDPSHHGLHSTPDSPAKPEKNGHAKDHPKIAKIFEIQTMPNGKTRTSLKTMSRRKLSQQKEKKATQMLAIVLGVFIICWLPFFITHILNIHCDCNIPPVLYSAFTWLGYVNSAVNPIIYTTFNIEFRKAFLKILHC
In general terms: Calcium flux is commonly read through the fluorescence of an indicator in the cells.
As to `CCOC(=O)c1cnc2c(Cl)cc(Cl)cc2c1Nc1ccccc1OC`, the inhibition is 10.7%. Next, `COc1ccc(-c2cn3c(C)c(C(=O)Nc4cc(C)cc(C)c4)sc3n2)cc1`: 4.6%; `COC(=O)c1ccc(Cn2nnc3c(=O)[nH]c(C4CCCN(S(=O)(=O)c5ccccc5Cl)C4)nc32)cc1` (stereo not drawn): 10.7%; `Cc1ccc(-c2nnc3c4ccccc4c(C)nn23)cc1NC(=O)c1ccccc1`: 7.48%. On to `CCc1cccc(NC(=O)CN(C)S(=O)(=O)c2ccc3[nH]c4c(c3c2)CCCC4)c1`, for which the inhibition came out at 1.56%. In the case of `CCc1ccccc1-n1c(N)c(C(=O)OC)c2nc3ccccc3nc21` it was -1.22%.

Turning to `Cc1cc(-c2ccc(C)c(S(=O)(=O)N3CCOc4ccc(Cl)cc43)c2)on1`, the inhibition was -3.49%. Next, `COc1ccc(CCNc2ncnc3c2nnn3C)cc1`: -18.4%; `COC(=O)c1sc2cccc(F)c2c1S(=O)(=O)N1CCN(c2cccc(C)c2)C(C)C1` (stereo not drawn): 12.9%.

On to `CCOC(=O)N1CCc2c(sc(N)c2C#N)C1`, for which the inhibition is active: 58.2%. `CC1CCc2c(sc(NC(=O)CCCOc3ccccc3)c2C(N)=O)C1` (stereo not drawn): the inhibition was -6.13%.

Regarding `COc1n[nH]c(C(=O)Nc2cc(Cl)ccc2Cl)c1[N+](=O)[O-]`, the inhibition was active: 32.1%. As to `O=c1cc(C(F)(F)F)oc2c1ccc1ccccc12`, the inhibition was active: 33.7%. As to `COc1ccc(-c2cc(C(=O)Oc3ccc(Br)cc3)c3ccccc3n2)cc1`, the inhibition came to 6.7%. Regarding `Cc1ccc(NC(=O)c2oc3ccccc3c2NC(=O)C2CCCCC2)cc1`, the inhibition stood at 11.2%. `COc1cc(OC)c(NC(=O)CCc2nc(C3=CCN(Cc4cccc(Cl)c4)CC3)no2)cc1Cl`: the inhibition was found to be 4.03%. Next, `CCc1ccc(-n2c(=O)c3sc4ccccc4c3n(CC(=O)NC3CCCC3)c2=O)cc1`: -1.63%; `Cc1nc2nc(CNC(=O)OC(C)(C)C)nn2c(C)c1CCC(=O)NCc1ccccc1Cl`: -6.4%.

Turning to `COc1ccc(CCNC(=O)CCc2c(C)c3ccc(O)c(C)c3oc2=O)cc1`, the inhibition was -5.29%. As for `COc1cccc(C2C(=O)N(C3CCCCC3)CC(=O)N2CCc2ccc(OC)c(OC)c2)c1` (stereo not drawn), the inhibition was determined as 14.3%. On to `Nc1nc(N)c(S(=O)(=O)c2ccccc2)c(Nc2ccccc2)n1`, for which the inhibition came out at 4.52%. Next, `CCc1cccc(C)c1Nc1c(-c2cccs2)nc2ncccn12`: 8.42%; `O=S(=O)(Nc1ccc(OC(F)(F)F)cc1)c1ccc(N2CCCCS2(=O)=O)cc1`: 6.56%; `Cc1cc(C)c(S(=O)(=O)NCC(c2ccco2)S(=O)(=O)c2ccccc2)c(C)c1` (stereo not drawn): -7.84%.

Take `Cc1cc(C)c(NC(=O)CCN2CCCCC2)c(C)c1`: the inhibition worked out at 21.3%. Next, `O=C(Cn1c(=O)c2ccccc2n(CC(=O)Nc2ccccc2F)c1=O)NCCc1ccccc1`: -14.8%.

As to `CCC(OC(=O)c1ccco1)C(=O)NCc1ccc(C)cc1` (stereo not drawn), the inhibition is active: 66%. On to `COc1ccc(NC(=O)COCc2cc(-c3ccco3)on2)cc1Cl`, for which the inhibition amounted to 0.919%.

Take `O=C(Nc1ccc(F)c(F)c1)c1ccc(=O)n(Cc2ccc(F)cc2)c1`: the inhibition was -16.2%. Next, `CC(C)c1ccc(S(=O)(=O)NCc2nc3cccnc3n2Cc2ccc(F)cc2)cc1`: 0.904%. In the case of `Cc1ccc(NC(=O)C2CCC(CNS(=O)(=O)c3cccs3)CC2)cc1C` (stereo not drawn) it was 9.45%.

As to `CCOC(=O)C1CCN(C(=O)c2ccc(C)c(NC(=O)c3nsc4ccccc34)c2)CC1`, the inhibition was 2.19%.

Take `CCC(=O)N1c2ccc(S(=O)(=O)CCC(=O)NCc3ccc(OC)cc3)cc2CC1C` (stereo not drawn): the inhibition was -8.7%. With `Cc1cccc(OC(=O)c2snnc2C)c1C`, the inhibition worked out at 8.68%.

Regarding `CCCN(C(=O)c1cc2c(s1)-c1ccccc1OC2)c1ccc(C(C)C)cc1`, the inhibition was -10.5%.

`CCc1ccc(Nc2nc(-c3cc4cccc(OC)c4oc3=O)c(CC)s2)cc1`: the inhibition turned out to be 8.09%. `CCOC(=O)c1ccc(NC(=O)Nc2cc3c(cc2N2CCCCC2)n(CC)c(=O)n3CC)cc1`: the inhibition came out at 0.695%. Turning to `Cc1ccc(OCCCN(C)C)c(Br)c1`, the inhibition is active: 37.4%. In the case of `CCOC(=O)Cc1ccc(NC(=O)Nc2nnc(N3CCCCC3C)s2)cc1` (stereo not drawn) it was -0.38%. In the case of `COC(=O)c1ccc(NC(=O)c2c(-c3ccccc3)c(-c3ccccc3)nn(C)c2=O)cc1` it was 0.0357%. For `O=C(Nc1ccc2c(c1)CCCN2C(=O)c1cccs1)c1ccccc1C(F)(F)F`, the inhibition was 12.2%.

In the case of `Cc1cc2c(cc1S(=O)(=O)CCC(=O)N1CCN(c3ccccc3)CC1)OCC(=O)N2`, the inhibition came to 19.6%.

For the molecule `CCS(=O)(=O)N1CC(=O)N(c2cc(Cl)ccc2C)C(C)(C(=O)NC2CCCCCC2)C1` (stereo not drawn), the inhibition is -1.13%. Regarding `CCCCCOC(=O)CSc1nc2sc3c(c2c(=O)n1Cc1ccccc1)CC(C)(CC)OC3` (stereo not drawn), the inhibition is -6.82%. For the molecule `COc1ccc(CNC(=O)CCc2c(C)nn(-c3ccc(N4CCCC4)nn3)c2C)cc1`, the inhibition is 10.9%. Take `COc1ccc(-c2nc3scc(CCNS(=O)(=O)c4cccs4)n3n2)cc1`: the inhibition turned out to be 21.7%. As to `COc1cccc(C(=O)NC2=NC(c3ccccc3F)CC(=O)N2)c1` (stereo not drawn), the inhibition was -12.3%.

On to `Cc1ccc(-n2c(=O)c3c4c(sc3n(CC(=O)C(C)(C)C)c2=O)CCCCC4)cc1C`, for which the inhibition is -16.5%.

Regarding `COc1ccc(Br)cc1CNCc1c(C(=O)O)c(C)n(Cc2ccccc2C)c1C`, the inhibition was -12.3%. In the case of `Cc1nc2cccnc2n1-c1cccc(C(=O)NCc2cccc(Cl)c2)c1` it was -1.46%; in that of `CCSc1ncc(Cl)c(C(=O)Nc2cc(C)ccc2C)n1`, 2.11%. For the molecule `COc1ccccc1C(=O)OCc1cc(=O)n2c(C)csc2n1`, the inhibition was 12.4%.

On to `CC(=O)c1c(C)n(-c2cccc(Cl)c2)c2ccc(OC(=O)c3ccccc3)cc12`, for which the inhibition is -0.303%. Next, `CCCOC(=O)c1c(-c2ccccc2)c(-c2ccccc2)nn(C)c1=O`: -10%.

Turning to `Cc1cc(C)c(-c2n[nH]c3c2C(c2ccccc2F)N(CCO)C3=O)c(O)c1` (stereo not drawn), the inhibition is -2.25%. In the case of `COc1ccc(-c2[nH]c(-c3ccc(C)cc3)nc2SCC(=O)NCC2CCCO2)cc1` (stereo not drawn) it was 21%; in that of `COc1ccccc1CNCC(O)Cn1c2ccccc2c2ccccc21` (stereo not drawn), active: 42.3%; in that of `COc1cccc(NC(=O)CSc2nc(=O)[nH]c3c2CCCC3)c1`, -4.95%. As for `CCOc1ccc(NC(=O)c2nn(C)c3c2COc2ccccc2-3)cc1`, the inhibition is 2.82%. Consider `CCOc1ccc(S(=O)(=O)Nc2cc3c(C(=O)OCc4ccccc4)c(C)oc3c3ccccc23)cc1`, for which the inhibition was found to be 5.48%. Next, `COc1ccc2c(c1)c1c(c(=O)n(-c3cc(Cl)ccc3C)c(=O)n1Cc1ccc(F)cc1)n2C`: 7.55%; `Cc1c(Cl)cccc1-n1ncc(C(=O)NC2CCCC2)c1C1CCN(C(=O)OC(C)(C)C)CC1`: 10.8%. In the case of `Cc1ccc(NC(=O)N2CCN3CCCCC3C2)cc1C` (stereo not drawn) it was -10%; in that of `CCc1cc(=O)n2[nH]c(C)c(-c3ccc(OC)cc3)c2n1`, active: 33.7%; in that of `Cn1c(=O)n(C)c2cc(CNCc3ccccc3Cl)ccc21`, -9.46%. Take `COc1cccc(C(=O)NCc2cn3cccc(C)c3n2)c1`: the inhibition is -2.57%. With `O=C(c1ccc(Cl)cc1)n1nc(-c2ccccc2)nc1NCc1ccco1`, the inhibition stood at 8.62%. Next, `CCCn1c(=N)c(C(=O)NC(C)c2ccccc2)cc2c(=O)n3ccccc3nc21` (stereo not drawn): 5.73%; `Cc1ccc2scc(N3CCCC(C)C3)c(=O)c2c1` (stereo not drawn): -4.4%; `CCOc1cc2[nH]c(=O)n(CCC(=O)N3CCN(c4ccccc4)CC3)c(=O)c2cc1OCC`: 15.6%.

For `Cc1ccc(-n2nc3c(N4CCCC(C(=O)NCc5ccccc5C)C4)nnc(C)c3c2C)cc1` (stereo not drawn), the inhibition was -17.5%. On to `O=C(NCCCNCCCNC(=O)c1ccccn1)c1ccccn1`, for which the inhibition was active: 74.1%. `CCOC(=O)c1cc2c(=O)n3ccccc3nc2n(CCCOC)c1=NC(=O)c1cc2ccccc2o1`: the inhibition was found to be 7.01%. As for `COc1ccc(NC(=O)Cn2c(=O)n(Cc3ccccc3Cl)c(=O)c3cc(OC)c(OC)cc32)cc1`, the inhibition was -10.8%.

As for `Cc1ccc(CCNC(=O)c2cc3ccccn3n2)cc1`, the inhibition is -1.71%. Next, `Cc1ccc(Cn2c(C)c3cnn(CC(=O)N4CCN(c5cc(C)ccc5C)CC4)c(=O)c3c2C)cc1`: 11.5%; `COc1cccc(-n2c(C)nc3c(cnn3-c3ccc(C)c(C)c3)c2=O)c1`: 0.537%; `O=c1oc2ccc(Cl)cc2cc1-c1nc(-c2cccs2)no1`: 3.98%.

Turning to `Cc1ccc(C(=O)CC2(O)C(=O)N(CCc3ccccc3)c3ccc(Br)cc32)cc1` (stereo not drawn), the inhibition is -15.5%.

In the case of `CCc1cccc(NC(=O)CN2C(=O)COc3ccc(S(=O)(=O)N4CCC(C)CC4)cc32)c1`, the inhibition was -17.4%. Next, `O=C1CSc2ccc(C(=O)NCC(c3ccco3)N3CCCCC3)cc2N1` (stereo not drawn): active: 35.8%; `CCOCCCNC(=O)C(c1ccc(OC)cc1)N(Cc1cccs1)C(=O)CNC(C)=O` (stereo not drawn): -14.9%; `O=C(CN1C(=O)CCSc2ccc(S(=O)(=O)N3CCCC3)cc21)Nc1ccccc1Cl`: -2.23%. On to `CCCC12CN3CC(CCC)(CN(C1)C3c1c[nH]c3ccc(OC)cc13)C2=O` (stereo not drawn), for which the inhibition is -6.42%. In the case of `CCCOc1ccc(CC2C(=O)Nc3ccc(Br)cc32)cc1` (stereo not drawn) it was 16.4%; in that of `Cc1nc(CC(=O)Nc2ccc(C(N)=O)cc2)cs1`, 1.8%; in that of `CCSC1=NC2(CCN(C(=O)NC3CCCCC3)CC2)N=C1c1ccc(OC)cc1`, 5.92%. Next, `CN(Cc1ccccc1)C(=O)c1ccccc1NC(=O)c1ccco1`: active: 31.2%; `CC(C(=O)NCc1ccccc1)n1ccc2cc(S(=O)(=O)N3CCCC3)ccc21` (stereo not drawn): -4.19%. In the case of `COc1ccc(NC(=O)Cn2c(=O)n(Cc3ccco3)c(=O)c3sc4ccccc4c32)cc1Cl` it was 9.88%; in that of `CC(C)c1ccc(NC(=O)CN2C(=O)C3(SCC(=O)N3c3ccc(F)cc3)c3ccccc32)cc1` (stereo not drawn), 0.718%.

Regarding `Cc1ccc(N2CCn3c2nc2c3c(=O)n(Cc3cccc(Cl)c3)c(=O)n2C)cc1C`, the inhibition is 14.7%.

Turning to `O=C(Nc1ccc(Cl)cc1)c1ccc2c(c1)N(Cc1ccccc1)CCS2`, the inhibition is -2.23%.

Consider `O=C(CSc1nc2ccccc2n1Cc1cccc(Cl)c1)N1CCN(c2ccc(F)cc2)CC1`, for which the inhibition was 8.83%. With `c1ccc(N2CCN(c3ncnc4c3nc3n4CCCC3)CC2)cc1`, the inhibition was 6.42%. Next, `COc1ccc(OC)c(CNC(=O)Cn2nc(C)c3c(C)n(-c4ccccc4)nc3c2=O)c1`: -12.7%; `O=C(Nc1ccc(Cl)cc1)c1ccc2c(c1)N(Cc1ccccc1)C(=O)c1ccccc1S2(=O)=O`: -6.42%. In the case of `Cc1cc2oc(C(=O)Nc3cccc(-c4nc5ccccc5o4)c3)c(C)c2cc1Cl` it was -1.83%.

As usually defined, the inhibition is the change of the read-out against control, counted positive when it falls.
